Experimental data: paper PMC4336329 (PLoS ONE, 2015)
In all, about 310,000 compounds went through this assay and about 2,200 (0.71%) showed an effect of 50% or more. The effect is printed as a negative number. The list shows a part of the results.

target: human ether-à-go-go-related gene (hERG) potassium channel (human, UniProt Q12809); assay: primary screen, population patch clamp on CHO cells stably expressing hERG
Sequence (Q12809 whole entry, looked up): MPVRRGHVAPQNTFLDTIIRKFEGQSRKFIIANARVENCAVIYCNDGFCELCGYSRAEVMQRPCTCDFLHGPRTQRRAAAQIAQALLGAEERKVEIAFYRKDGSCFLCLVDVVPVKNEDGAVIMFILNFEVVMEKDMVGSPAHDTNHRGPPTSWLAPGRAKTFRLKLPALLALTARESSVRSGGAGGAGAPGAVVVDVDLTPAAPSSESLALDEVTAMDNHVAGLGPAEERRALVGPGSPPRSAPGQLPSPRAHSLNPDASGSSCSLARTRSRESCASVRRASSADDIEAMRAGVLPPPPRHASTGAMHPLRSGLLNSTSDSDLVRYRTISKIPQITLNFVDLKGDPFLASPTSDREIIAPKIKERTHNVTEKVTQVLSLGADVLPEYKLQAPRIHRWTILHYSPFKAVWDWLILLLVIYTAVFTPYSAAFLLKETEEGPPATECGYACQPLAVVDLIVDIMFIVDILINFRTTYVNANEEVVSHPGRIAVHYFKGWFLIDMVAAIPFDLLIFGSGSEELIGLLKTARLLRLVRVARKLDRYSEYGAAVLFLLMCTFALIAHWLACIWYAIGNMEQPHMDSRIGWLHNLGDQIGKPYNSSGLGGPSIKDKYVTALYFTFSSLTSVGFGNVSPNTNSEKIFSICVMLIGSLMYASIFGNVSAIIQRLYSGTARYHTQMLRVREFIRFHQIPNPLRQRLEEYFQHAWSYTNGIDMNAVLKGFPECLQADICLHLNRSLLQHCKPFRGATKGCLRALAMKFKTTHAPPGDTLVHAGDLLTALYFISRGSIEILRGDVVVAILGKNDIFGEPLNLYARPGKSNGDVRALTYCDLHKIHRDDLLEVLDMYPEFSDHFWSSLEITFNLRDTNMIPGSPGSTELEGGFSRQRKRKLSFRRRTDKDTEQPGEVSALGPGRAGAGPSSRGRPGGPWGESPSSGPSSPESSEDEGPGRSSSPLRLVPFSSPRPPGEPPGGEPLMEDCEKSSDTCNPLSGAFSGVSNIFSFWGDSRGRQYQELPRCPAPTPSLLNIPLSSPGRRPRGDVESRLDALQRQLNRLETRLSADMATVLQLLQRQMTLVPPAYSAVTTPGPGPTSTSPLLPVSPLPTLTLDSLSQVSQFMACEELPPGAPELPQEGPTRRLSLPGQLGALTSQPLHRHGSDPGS

Structure (SMILES) | hERG current change (%, negative = inhibition) at 1uM [%]
CCOc1ccc(NC(=O)CN2CCN(CC(=O)Nc3ccc(Cl)c(C(F)(F)F)c3)CC2)cc1 | -6.47
CCNc1nc(SC(C)C(=O)Nc2ccccc2)nc(N2CCOCC2)n1 (stereo not drawn) | 3.98
Cc1ccc(NC(=O)c2cc(=O)n(Cc3ccccc3)c(=O)[nH]2)cc1C | 22.4
O=C(c1ccc(Cl)cc1)C1CCN(C(=O)c2ccccc2)CC1 | 4.65
COc1ccc(-c2nn(-c3ccccc3)cc2/C=N/O)cc1OC | 12.7
O=C(CSc1nnc(SCc2ccc(Cl)cc2)s1)N/N=C/c1c[nH]c2ccccc12 | 5.71
Cc1ccc(CNC(=O)c2ccc(OCC3CCCO3)cc2)cc1 (stereo not drawn) | 9.63
Cc1ccc(S(=O)(=O)N2CCC(C(=O)NC3CC(C)(C)NC(C)(C)C3)CC2)cc1 | 12.1
Br.Cc1cc(C)cc(OCC(=O)NN2Cc3ccccc3C2=N)c1 | 1.63
O=C(NCCN1C(=O)S/C(=C\c2cccnc2)C1=O)C1CC(=O)N(Cc2ccco2)C1 (stereo not drawn) | 16.8
CC(C)n1cc(CN2CCC(n3nccc3NC(=O)Cc3ccccc3)CC2)cn1 | 13.3
NC(=O)CC(NC(=O)Cc1ccc(Br)cc1)c1ccc(NCc2ccc(F)c(F)c2)c([N+](=O)[O-])c1 (stereo not drawn) | 5.75
O=C(NCc1ccco1)c1csc2c1CCCC2 | 19.4
C=C(C)Cn1c(SCC(=O)O)nnc1-c1ccc(C(C)(C)C)cc1 | 11.2
O=C(NNC(=O)c1ccc(Cl)cc1Cl)c1cccs1 | 16.3
CCN1CNC(=S)N(Cc2ccccc2)C1 | 5.82
CC(C)(C)OC(=O)N1CCC(c2c(C(=O)N3CCN(C(=O)c4ccco4)CC3)cnn2-c2ccc(F)cc2)CC1 | 8.32
CCC(C)(C)c1ccc(OCC(=O)Nc2ccncc2)cc1 | 10.5
Cc1ccc(S(=O)(=O)N2CCCOC2CNC(=O)C(=O)NCCCn2ccnc2)cc1 (stereo not drawn) | 3.8
Cc1ccc(NC(=O)c2ccc(Cl)c(N3C(=O)C=CC3=O)c2)cc1 | -2.61
CC(=O)Nc1cc(O)cc(O)c1 | 4.15

Structure (SMILES) | hERG current change (%, negative = inhibition) at 1uM [%]
Nc1c(Br)cc([N+](=O)[O-])cc1[N+](=O)[O-] | 10.8
COc1ccc(C(=O)NCc2ccc3c(c2)cc(C)n3C)cc1OC | 6.09
COc1ccc(C(CC(=O)c2ccccc2)S(=O)(=O)c2ccccc2)cc1 (stereo not drawn) | 10.8
CCn1c(SCC(=O)Nc2ccc(NC(C)=O)cc2)nc2c1c(=O)n(C)c(=O)n2C | 13.2
CC1=NN(c2ccccc2)C(=O)C1C(=O)c1ccc([N+](=O)[O-])cc1 (stereo not drawn) | 6.37
CCOc1ccc(N(CC(=O)Nc2ccc(OC)cc2)S(=O)(=O)c2c(C)[nH]c(=O)[nH]c2=O)cc1 | 6.52
O=C(NN1C(=O)NC2(CCCCC2)C1=O)c1cc(F)cc(F)c1 | 7.19
COc1cc(CNC(C)(C)CO)ccc1OCC(=O)Nc1ccc(Br)cc1 | 1.2
CC(C(=O)NCCS(=O)(=O)c1ccc(Cl)cc1)S(=O)(=O)c1ccc(Cl)cc1 (stereo not drawn) | 1.23
Cn1c(Sc2ccc(Br)cc2)c(C=O)c2ccccc21 | 9.83
CCOc1cc(C)c(C(C)C)cc1S(=O)(=O)N1CCN(C)CC1 | -6.68
Cc1ccc(-c2cn3cccnc3n2)cc1NC(=O)c1c(-c2ccccc2Cl)noc1C | 12.7
CCN(CC)C(=O)Cn1cnc2sc(C(=O)N3CCN(Cc4ccc5c(c4)OCO5)CC3)c(C)c2c1=O | 15.1
CNC(=O)c1sc(N2N=C3/C(=C/c4ccccc4)CCCC3C2c2ccccc2)nc1C (stereo not drawn) | 13.6
CC(C)OC(=O)CC12CN(C)CC(CC(=O)OC(C)C)(CN(C)C1)C2=O | 6.62
CCN1C(=O)[C@H]2[C@@H](c3ccc(-c4ccccc4)cc3)N[C@@](CC(C)C)(C(=O)OC)[C@H]2C1=O.O=C(O)C(F)(F)F | 14.5
C/C=C(\C)C(=O)N[C@@H](c1ccccc1)[C@@H](O)C(=O)O[C@H]1C[C@@]2(O)[C@@H](OC(=O)c3ccccc3)C3[C@](C)(C(=O)[C@H](OC(C)=O)C(=C1C)C2(C)C)[C@H](O)C[C@H]1OC[C@@]31OC(C)=O (stereo partly drawn) | 16.7
COc1ccc(OC)c(CN2CCN(C(=O)c3cccc4ccccc34)CC2)c1.O=C(O)C(=O)O | 3.4
Cc1cc(C)n(/C(=C\N(C)C)C(=O)c2ccc(Cl)cc2)n1 | 13.7
CC1(C)Cc2nc(NCCCO)c(C#N)cc2CO1 | 8.45
O=C(O)c1cc(-c2ccccc2Cl)n(-c2cccc(Cl)c2)n1 | 10.3
